Our source for the GI50 and TGI values is PubChem BioAssay (NCI).

The test deals with NCI-H322M lung. Briefly: growth of human tumour cells (NCI), 48 h.

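Test compounds were applied to cells in 96-well plates for 48 hours at 5 doses. Here, GI50 denotes the concentration required for 50% inhibition of growth. TGI denotes the concentration required for complete inhibition of growth.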

As to `O=C(c1ccc(Cl)cc1)c1ccc(OCCCN2CCN(c3ccncc3)CC2)cc1`, the GI50 was 7.05 µM and the TGI worked out at 20.3 µM.
For the compound `O=C(CSc1nc2ccccc2c(=O)n1-c1ccc(Cl)cc1)Nc1ccc(-c2nc3ccccc3[nH]2)cc1`, the GI50 is 3.72 µM and the TGI was found to be 15.1 µM.
Taken in the same sequence, the figures for `O=C(/C=C/c1ccccc1)c1nc2ccccc2n1Cc1ccc(F)cc1` were 3.88 µM and 15.1 µM.
Taken in the same sequence, the figures for `COc1ccc(C(=O)/C=C/c2cc(F)cc(C(F)(F)F)c2)cc1S(N)(=O)=O` were 3.76 µM and 15.2 µM.
For `Cc1ccc(/C=C/c2n(Cc3ccc4ccccc4c3)c3ccccc3[n+]2Cc2ccc3ccccc3c2)cc1`, the GI50 is 1.29 µM and the TGI worked out at 2.55 µM.
